Data taken from the supplement of paper PMC3724861.
The list shows a part of the results.

tested on: T1, Caupolican (Caup) homeodomain DNA-binding domain; experiment: PBM E-score (8-mer, recovered from the published 9-mer minima) (E-score (dimensionless, -0.5 to 0.5)); Drosophila protein; higher = stronger relative binding preference, active = 0.31 or more
T1 sequence: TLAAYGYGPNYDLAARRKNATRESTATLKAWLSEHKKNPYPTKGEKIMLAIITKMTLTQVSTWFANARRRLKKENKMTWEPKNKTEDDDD
How it was run: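 Caup's homeodomain DNA-binding domain (residues 214-303) was made by in vitro transcription and translation and applied at 100 nM to custom-designed protein binding microarrays. Each value is an enrichment score that gives relative binding preference for a short DNA word, with higher meaning stronger. The 8-mer values were recovered from published 9-mer scores, each of which was the minimum of its two constituent 8-mer scores. A cutoff of 0.31 marks candidate sites.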

Sequence	PBM E-score
CAGTAGCG	inactive: -0.17
AACTTGTC	inactive: 0.27
TAACTCGA	≥ 0.126
CTAGGTAA	inactive: 0.0563
ACTGCGAC	inactive: -0.0147
TATATTAA	inactive: 0.208
ACAGAATC	inactive: 0.0503
AGATGTAT	inactive: 0.29
CACCTGCC	inactive: -0.123
CGTCAGGA	inactive: -0.00148
GACTGAAC	inactive: -0.0053
GATGTACA	active: 0.404
AATCGCGG	inactive: -0.165
GGTCCAAC	inactive: -0.186
ACCTGGTG	inactive: -0.0218
AAAGGAGT	inactive: 0.016
ATCGAGGC	inactive: -0.124
GTGGGCCA	inactive: -0.159
CATCGTCA	inactive: 0.0807
GTTCAGCA	inactive: 0.0779
CCCTCTGA	inactive: -0.158
GTCTGTCA	inactive: 0.182
AGGAAAAG	inactive: 0.0484

Sequence	PBM E-score
AATGGATA	inactive: 0.0292
AACTTTCG	inactive: -0.00535
ACGCCCGC	inactive: -0.227
GATGACAC	inactive: 0.219
CAACGATG	inactive: 0.131
CTCTAGAG	inactive: -0.167
ACTGTTAA	inactive: 0.0659
ACAGCTCT	inactive: -0.0213
CCCTTTAC	inactive: -0.0517
AAAAAGTA	inactive: 0.118
ACTAGAGT	inactive: -0.0164
AACAGTAA	inactive: 0.151
AATCTGCG	inactive: -0.052
AGGTAGAT	inactive: -0.00648
CCCTTCCG	inactive: -0.241
ATATATCC	inactive: 0.142
ACCGCGGT	inactive: -0.139
TATTAAAA	inactive: 0.0786
GAAGACTC	inactive: -0.0665
GGTCGTAC	inactive: 0.0868
GGGTGGAA	inactive: -0.03
CATTAGGA	inactive: 0.0453
ACCGACGA	inactive: -0.0426

Sequence	PBM E-score
GTCCCGAC	inactive: -0.0659
GTGCTGAA	inactive: 0.0551
GGAAGTAC	inactive: -0.00067
TACCAGTA	≥ 0.164
ATATCGGC	inactive: 0.00498
CTATCCTC	inactive: -0.139
CATGGGCC	inactive: -0.147
GACGTCGC	inactive: -0.131
GACAAGAA	inactive: 0.297
AAAACCTT	inactive: -0.0528
CCCAACTC	inactive: -0.151
CAAGGTTC	inactive: -0.0588
GATCGTAA	inactive: 0.082
CCGAGATC	inactive: -0.0774
CAGAACCA	inactive: -0.00851
AAAAGATG	inactive: 0.141
ATTACAGC	inactive: 0.128
ACGCATTG	inactive: 0.0415
ATTAGAAT	inactive: 0.155
AACGCGAT	inactive: 0.0454
CTGCAAAA	inactive: -0.0244
CGCCAGAG	inactive: -0.216
ACAGTACC	inactive: 0.106

Sequence	PBM E-score
ATCGAACC	inactive: -0.0139
ACAACTCG	inactive: 0.229
AGGATTAT	inactive: 0.0036
AGCATACC	inactive: 0.0239
CCAAAAGC	inactive: -0.185
CAGGCATC	inactive: 0.0211
AATGATCT	inactive: 0.0982
GCCTTATA	inactive: -0.054
CGGATGGA	≥ 0.022
GTGTGGGA	inactive: -0.00973
CGAAAACG	inactive: -0.113
CATTCATC	inactive: 0.0989
TCAGCGGA	inactive: -0.139
CGTCAAAG	inactive: 0.0139
CCTTATAA	inactive: 0.0288
AATATGTG	inactive: 0.259
ACGTACCC	inactive: 0.00217
CACAGTCA	inactive: 0.0769
CATTTACC	inactive: 0.152
AGCATGAG	inactive: 0.104
CGTTTCAG	inactive: -0.0507
CGAGTATC	inactive: -0.0742
ATCCCGGA	inactive: -0.045

Sequence	PBM E-score
CAACCAGC	inactive: 0.0253
ACAGGGGG	inactive: -0.181
GCGCCAGC	inactive: -0.258
GGCTGCCC	inactive: -0.363
GAATTACC	inactive: 0.0891
GTACGGAC	inactive: 0.0959
ACGAGCGG	inactive: -0.0452
AGGAGCGC	inactive: -0.19
GGCTGATA	inactive: 0.0181
CCGGTTGA	inactive: -0.111
GGGGATTA	inactive: -0.0502
TGCAAAAA	inactive: 0.0586
ATCGTGGC	inactive: -0.0433
ATTTCTCG	≥ 0.0689
AGCTCTGA	inactive: -0.0958
AATAGCAT	inactive: 0.135
GCTAGTCC	inactive: -0.0319
AGCGACCT	inactive: -0.0697
AATTCTCA	inactive: 0.0607
